# Paper PMC12136788
# The other results are listed elsewhere or left out.
# T1: UNK ZnF1-3 (human, UniProt Q9C0B0 31-174)
# T1 sequence: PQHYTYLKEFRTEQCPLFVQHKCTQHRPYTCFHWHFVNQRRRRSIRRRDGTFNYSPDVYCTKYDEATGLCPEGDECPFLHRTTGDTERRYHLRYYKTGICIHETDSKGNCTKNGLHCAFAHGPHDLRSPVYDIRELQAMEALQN
# B1: chr1:178664722:178664723:-_ENSMUSG00000057335_ENSMUST00000057037|mus_mus|FALSE|FALSE (ssRNA)
# RNA: GGGAGUUCUACAGUCCGACGAUCAGUCGUUGUUGCUGUCUUGCAGGGUCCUUACAAAUGUGUAAGACUGACAAAGGGUUACUAUGGACCUACAGGGAAACACAGAAGCAAUUCAAUGACUGGGAGUGCAACUAUCAACUACUCCAACAGAGGAUUGAGCAUCA
# B2: chr1:94914716:94914717:-_ENSMUSG00000014602_ENSMUST00000171796|mus_hu|motif|central (ssRNA)
# RNA: GGGAGUUCUACAGUCCGACGAUCUAAAUAGAACAAGUCUUAUAGUUAAUUUCCGAGUUGACUGUUUCAAUGUCACGGACGGACGUAUAUUAAUUAUAAGUCUGUCUAUGCUUAAAAAAAUAUUAGAACGGCAGCAAGAACCCCCAACAGAGGAUUGAGCAUCA
# B3: chr2:29787112:29787113:+_ENSMUSG00000026790_ENSMUST00000113756|mus_mus|motif|central (ssRNA)
# RNA: GGGAGUUCUACAGUCCGACGAUCGCAAUGAGAUAGGAAUUCUGAUUGUCAGGCCGGAUGGUCGUGAGGAACAAGUGGCCGGUAGGAAACAGACAUGGGAGGUUUCCCCGGGCACCAAGGAGAACACUGCUUCCUGCAGGACCCCAACAGAGGAUUGAGCAUCA
# B4: chr8:95500983:95500984:-_ENSG00000164944_ENST00000437199|hu_hu|hu_hu_hu_mus_True|1_48 (ssRNA)
# RNA: GGGAGUUCUACAGUCCGACGAUCAGAACACAUCUAUCGAGUAAAGGACCGUACAUGACGGCCUCUACCACUGCCUCCACUAACAAAACUUUCCUCUGAGCCUCCACUGCCGCUAUUUGUACUAGCCCAGGACGGUCCCAAGUCCAACAGAGGAUUGAGCAUCA
# B5: chr11:102221366:102221367:+_ENSG00000110330_ENST00000227758|hu_hu|motif|central (ssRNA)
# RNA: GGGAGUUCUACAGUCCGACGAUCCCAGUACAUAAAUGUUCUCAUUCGAGCUGCAUGUGUCUGCAUGCUCAGAUUUGAAAUGCGGAACCUCAGAGUUUCUAGAGAAUUUUCCAAAAAUGGACAGUUGGGAAAAUGCCUCCGGUGCAACAGAGGAUUGAGCAUCA
# B6: 20567905_20568025_938_CDS_ENSG00000121741_ENST00000382871|human|control|control (ssRNA)
# RNA: GGGAGUUCUACAGUCCGACGAUCAAAAACGUCUCCUGCCACAUUCAUUCUACCAGGAUUAAAAGGUCCUACUCCAGUCUUGGUCUGUGAAGUUAAAGAUGGGGUGUAUGUUUGUAUAUUAACACCAAAAUUACUUGACUGCAGCAACAGAGGAUUGAGCAUCA
# Target: T1, UNK ZnF1-3
# Assay: nsRBNS (natural sequence RNA bind-n-seq); RBNS binding buffer (assumed for nsRBNS): 25 mM Tris pH 7.5, 150 mM KCl, 3 mM MgCl2, 0.01% Triton X-100, 500 ug/ml BSA, 20 U/ml SUPERase-In, 4 C; UNK is unkempt and MSI1 is Musashi-1; names of the RNAs are library labels; protein concentration not given here; high values mean tight binding
row,Binder,binding signal [enrichment R]
1,B1,1.04
2,B2,1.68
3,B3,1.02
4,B4,1.02
5,B5,0.817
6,B6,1.43
